The results in this text go back to the supplement of paper PMC10126150.

Sequences with one replicate were seen in a single cluster, so their values are uncertain.

The test system of this series is ATP. The series can be described thus: switch fluorescence ratio, 500 uM ATP over buffer (Cy3 cluster intensity, sum of 5 cycles each) (fold (ratio)); higher = stronger signal-on switching upon ATP binding; sequences stand for … in TCGTCGGCAGCGTCAGATGTGTATAAGAGACAGTTTTTTTTTTTTTTTTTTTTTTTTT…TC. As to conditions: aptamer strand: ATP DNA aptamer (quencher-CACCTGGGGGAGTATTGCGGAGGAAGG + anchor), 100 nM annealed; ATP concentration: 500 uM; one replicate. An outline of the steps: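 Five buffer/ATP imaging cycles were run on Cy3-labelled switching-strand clusters on a modified Illumina MiSeq flow-cell, with NaOH stripping and re-annealing between cycles. In each cycle, clusters annealed to 100 nM quencher-labelled ATP aptamer were imaged in selection buffer, then after 15 min with 500 uM ATP at 22 °C. Per cluster, the fluorescence ratio is summed target-cycle over summed buffer-cycle Cy3 intensity, averaged per switch-domain sequence. Only clusters within 100-1000 RFU were kept.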
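Further: ATP exposure 15 min at 22 °C before imaging.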

Regarding GGTGCCCTTG, the switch fluorescence ratio was found to be 0.979.

In the case of GGGGGTGCAC, the switch fluorescence ratio was determined as 0.932.

As to ATATGTATAA, the switch fluorescence ratio was determined as 1.

For the sequence TGGGACATG, the switch fluorescence ratio was 1.05.

In the case of TTCTGTTACG, the switch fluorescence ratio came out at 1.04.

GGATGCGCTA: the switch fluorescence ratio worked out at 1.03.

As to GCCGAAGCCT, the switch fluorescence ratio was determined as 1.56.

Consider GGTCTCAATC, for which the switch fluorescence ratio came out at 1.03.

With TGCCGGAATT, the switch fluorescence ratio came out at 1.04.

Take AGTACGTTC: the switch fluorescence ratio stood at 1.01.

Turning to TCCAGGACG, the switch fluorescence ratio is 0.985.

Regarding ATACGATAGC, the switch fluorescence ratio came to 1.1.

Turning to CCGGTCCATA, the switch fluorescence ratio was 1.15.

TTATCCGA: the switch fluorescence ratio came to 1.1.

As to CGATGTAGGG, the switch fluorescence ratio was 0.988.

Consider TTTAAGCGG, for which the switch fluorescence ratio was 0.994.

Turning to AGCCTTAGT, the switch fluorescence ratio was 0.989.

Consider GGGACAAGG, for which the switch fluorescence ratio was determined as 1.01.

In the case of CGGGTGTGGT, the switch fluorescence ratio stood at 1.03.

As to CGGGTGCGTA, the switch fluorescence ratio amounted to 0.982.

Turning to CAAAACATCT, the switch fluorescence ratio was found to be 0.985.

As to ATGATATTGT, the switch fluorescence ratio amounted to 0.992.

Regarding AGAAGGGCGT, the switch fluorescence ratio was determined as 0.974.

Turning to ATGAGAGGGG, the switch fluorescence ratio was 1.18.

For the sequence GGCATGGGGT, the switch fluorescence ratio came to 1.02.

As to AGAGTATATA, the switch fluorescence ratio worked out at 1.06.

For TCATGAGGTT, the switch fluorescence ratio was determined as 1.01.

GACAAAGGCT: the switch fluorescence ratio worked out at 1.01.

As to TCAAGTAAAT, the switch fluorescence ratio was 1.19.

In the case of ATTCGCAGGT, the switch fluorescence ratio was determined as 1.1.

Consider CCTTACACCC, for which the switch fluorescence ratio is 1.7.

On to TTCAGACGGC, for which the switch fluorescence ratio worked out at 1.

As for GGCATCGGAT, the switch fluorescence ratio turned out to be 0.982.

Take AGCTAATTTG: the switch fluorescence ratio amounted to 0.996.

For GTGTAACATA, the switch fluorescence ratio turned out to be 0.976.

Turning to TTTTGGCCGA, the switch fluorescence ratio was 0.961.

As for TTTGAACTTA, the switch fluorescence ratio is 1.01.

In the case of TCCCATATTT, the switch fluorescence ratio stood at 0.983.

On to CCCGGAGAAA, for which the switch fluorescence ratio was determined as 1.59.

For AGTTGCTGGT, the switch fluorescence ratio was determined as 1.03.

As to ATAAAAGGGT, the switch fluorescence ratio worked out at 0.98.

As for CGATTGCTCT, the switch fluorescence ratio is 1.04.

Regarding ATCGAGCGCA, the switch fluorescence ratio was found to be 1.1.

Consider CACAAAACTT, for which the switch fluorescence ratio was found to be 1.07.

In the case of GGACCGATAA, the switch fluorescence ratio is 1.03.

As to TCAGTTGGTG, the switch fluorescence ratio amounted to 0.988.

Turning to CACAGTATGA, the switch fluorescence ratio is 1.09.

Take TATCGGATGT: the switch fluorescence ratio came to 1.01.

Turning to TGGCTCGAAT, the switch fluorescence ratio worked out at 0.994.

For the sequence GATACACGAG, the switch fluorescence ratio is 1.03.

Regarding TTAAAACTT, the switch fluorescence ratio turned out to be 1.01.

Take GTTAGATGGC: the switch fluorescence ratio is 0.998.

AAAACGTGAG: the switch fluorescence ratio came out at 0.982.

CTGCGATGGT: the switch fluorescence ratio is 1.15.

In the case of GGAAAACGAT, the switch fluorescence ratio was 0.976.

On to GTTTCGCTAT, for which the switch fluorescence ratio came to 1.19.

As for GACTAACTCG, the switch fluorescence ratio amounted to 1.

Regarding ATTAGCGTTG, the switch fluorescence ratio came out at 1.02.

Regarding CAACTTGATG, the switch fluorescence ratio was found to be 0.982.

In the case of ACCTTCGCAC, the switch fluorescence ratio was 3.85.

GGGTAGCCGT: the switch fluorescence ratio was 0.996.

With TGAAAGGCCT, the switch fluorescence ratio came to 1.02.

Take ATAGGCATAT: the switch fluorescence ratio was 1.95.

Turning to CCGAAGGTGA, the switch fluorescence ratio was 1.35.

For the sequence ATCGTGTGTA, the switch fluorescence ratio stood at 1.

CGTCTTTCTG: the switch fluorescence ratio came to 0.954.

With TTCCAAAGGG, the switch fluorescence ratio came to 0.968.

As to ACTTTTTTCG, the switch fluorescence ratio came to 1.09.

For the sequence TGTAATCGAG, the switch fluorescence ratio came out at 1.01.

Take ATATATGTAG: the switch fluorescence ratio was 1.01.

With TTGCGAAGAC, the switch fluorescence ratio stood at 1.22.

On to CTTATTTCGC, for which the switch fluorescence ratio was 1.04.

Consider TAGATTAGTG, for which the switch fluorescence ratio was found to be 0.977.

Consider TTCTTCTCCA, for which the switch fluorescence ratio stood at 0.99.

ATAATCGCAC: the switch fluorescence ratio stood at 1.15.

Regarding CGCTTTGGGA, the switch fluorescence ratio was 1.04.

As to TGGGAACCTT, the switch fluorescence ratio was 1.29.

Take CGCGCTGGGA: the switch fluorescence ratio was 1.01.

Consider GAAAGGCGTT, for which the switch fluorescence ratio came out at 1.25.

TGATCGGACC: the switch fluorescence ratio amounted to 1.05.

In the case of TTGGCGATAA, the switch fluorescence ratio turned out to be 1.23.

Turning to GGATACAATA, the switch fluorescence ratio worked out at 0.98.

With ATTTCGGTTA, the switch fluorescence ratio turned out to be 1.02.

AATGTGAGA: the switch fluorescence ratio was determined as 1.01.

GTTCGACAGC: the switch fluorescence ratio was found to be 1.06.

Consider CAGTCGCTGC, for which the switch fluorescence ratio turned out to be 1.08.

On to GTAACATATC, for which the switch fluorescence ratio came to 1.06.

Consider TGTAATAACT, for which the switch fluorescence ratio amounted to 1.04.

AATTGGGGG: the switch fluorescence ratio was found to be 0.976.

With TGCAAACTTG, the switch fluorescence ratio is 1.03.

Turning to AAGGTATAGA, the switch fluorescence ratio amounted to 0.996.

Turning to AGATTATCGC, the switch fluorescence ratio turned out to be 0.955.

On to GCGCCAAGTC, for which the switch fluorescence ratio came to 1.15.

For ATTGGATGG, the switch fluorescence ratio came out at 1.03.

With TCATTTGTAC, the switch fluorescence ratio is 1.08.

On to AGCTACCACA, for which the switch fluorescence ratio is 1.09.

On to AGGATTCTTG, for which the switch fluorescence ratio was found to be 0.976.

As to ATAGTGTCCC, the switch fluorescence ratio amounted to 0.969.

In the case of ATTGTTCATG, the switch fluorescence ratio was found to be 1.02.

ACTACACTCA: the switch fluorescence ratio was 1.22.

As to AATATAATTT, the switch fluorescence ratio worked out at 0.99.

With TGGGTCTAT, the switch fluorescence ratio was determined as 0.986.

Take TGGTATCACA: the switch fluorescence ratio was determined as 1.

As for TCTAATTGGC, the switch fluorescence ratio stood at 1.08.

Turning to CCCTAGTACG, the switch fluorescence ratio turned out to be 1.04.

Take TGCACTGGGC: the switch fluorescence ratio was determined as 1.03.

With ATCTAAGTCA, the switch fluorescence ratio worked out at 1.67.

Take ACCTTTAGGG: the switch fluorescence ratio was determined as 1.03.

In the case of TAGAGCACCA, the switch fluorescence ratio was found to be 1.03.

In the case of ATGGGGAACG, the switch fluorescence ratio worked out at 1.04.

As to AAGTTGGTAA, the switch fluorescence ratio came out at 0.976.

On to CGCCCCATTT, for which the switch fluorescence ratio stood at 1.01.

On to GGTATATCAT, for which the switch fluorescence ratio is 0.966.

Consider GGGGCCCTCT, for which the switch fluorescence ratio worked out at 0.966.

With AGGTTTTG, the switch fluorescence ratio came out at 1.03.

For CTTTGGAAGG, the switch fluorescence ratio stood at 0.973.

With TCGTCAAAGC, the switch fluorescence ratio was 1.14.

Consider ATCTCGGGTT, for which the switch fluorescence ratio came out at 0.993.

For the sequence GTGTAGTTG, the switch fluorescence ratio came out at 0.998.

On to CTTAGGCATG, for which the switch fluorescence ratio amounted to 0.958.
